Reference: the supplement of paper PMC12632987
Over roughly 4,500 sequences, “median log2 fold change of GCK-ALFA target abundance (FLAG IP / Myc IP barcode read proportion)” has its median near 0.078; the lowest 2% begin near -0.6. Some of the results follow.

B1: GBRAP_14_3839 (protein)
chain: KEEIEKLLKKAVEEAVEAVRELAPESKEEEVKKLREVLLKAVDEGLATGDLEEAERYLVDVAEESVKELFKDLPPEERGALVAEAVDTLIEGFEELEKKL
B2: GBRAP_128_3198 (protein)
chain: VSPEALAELRELADEVIETKTDEAIERFAEAVREALEAGEIDLDALEEIVEYLGEHLDADTLAKVEDALREALADVGAEALAVASGTLGEAIMEKEEEEE
B3: GBRAP_186_5369 (protein)
chain: SEEAKKEIEEFIDEFAKKGYIVIGVLKVEEFTEEEKERIEREIRAAAEFSAEFGYKVAIIIEFKGSEEEYEELKEFVEETVERLKKETGAEVEVKIVHNK
B4: GBRAP_128_3301 (protein)
chain: MPEELRKRVEELVETIKTGDKEEQRKAAEEIAELMKSVNLEEAEAIADIIISRIPELSKEALEILAEVLDKARPELTPEKRALAAEVASEALLEAEKLEE
B5: GBRAP_160_4532 (protein)
chain: DEFLKRAEELVEEAAERAIELVKGETVEQRIVIIEMEFGSVAMELAEDPRASDEMVDVVLDERDKLIETLKENPDLTDEEIKELIEKARDEIIKKLKELA
B6: GBRAP_52_6179 (protein)
chain: MREELREKIREMLELVKAGKLEEARKLARELVESLSEEELRLLVEELEEVAEESPLEDEDAVFRLAEILAEEIEEAGYDEVIAEDLLAAAARALYKKRLA
B7: GBRAP_139_3694 (protein)
chain: SAREEKLKKAVELTKRAIEEGEPAIRELAKYLVSLSEEEQIEAAEAIAEVLLPLPFDEAERLLELLIEVLRKEFGNEDLAEIVEAARNRALARIAVREEA
B8: GBRAP_52_6148 (protein)
chain: SEERAREAAERFIAAVRAGDEEEAREIMKEIAATFSDEEIALFLREVARLVATLTPEQKERVVELMIEFEDIAEAAGHDADLMSYLLAEVAGAAYKALQA
B9: GBRAP_83_6885 (protein)
chain: KEKITVAGPSDRIEEIVDIVIDLTKEEGYEVVIEVLATPEGLEKVKEGVERLAKAGVNTEIEIYAKGVTPEEAEALKKELEAIAKKYGVNIKITIHLEEP
B10: GBRAP_186_5370 (protein)
chain: EEEAKKEIEEFIDEAADEGYVIFGVLEVEEFTEEAKERIERELEALAEFSAEFGYKGALIILTKTSEEEFEKLKKYVEEKREKLSKETGAEVKVKIIHVK
B11: GBRAP_128_3602 (protein)
chain: AVEEARERARKALEEIKNSDLETAKKIAEELAEWLLTKSLEEVKAAMETIKELAPELTEDKLLILQDALHAAAKKATPEKQEVLLDAIGVLGEEAYEKTE
B12: GBRAP_125_3078 (protein)
chain: ADEQALADLATLARRLGLSDADVEELVRLAAASSLKQTLIALFLAEGWEEVADAMAKLTEEQARAVLARVAEYLAAHPDATPEEVKALALRLAEEALAAA
B13: GBRAP_160_4118 (protein)
chain: TEEDIKLLKDQAKDLKEDIKIVEELSPEEAGNLAEVTLGEIRLELDERNGKFEELAEKADEKIEEIEKTREENPEELKEVSLKALKEMEKALEKAAKELE
B14: GBRAP_128_3264 (protein)
chain: MNPEIVEYANNFIEKLKNSDKEEAKKLANELMEKLKTLTDEEVEQFVDVIEKRLKELSVEKLEILADAAREHRDEFTPEKANLVAGLAVEALNEAEEKEE
B15: GBRAP_153_3951 (protein)
chain: SMKEEELKKKALELIEKIKKTGGDEELIKEFAELIKELNEENKKEIFKELDSLPEELIKKIVKTLIKEGGISPEEIISWIVGTSEETEAAILEAIVEASK
B16: GBRAP_160_4502 (protein)
chain: SEKLEEAFKYLDEEKELAIEAAKEVSDEDAVKIIEAYAGLMIEYLKEEYGASEEAVDKMMKKVDEIVEKLKSIPNLTDEDVEKAIEEIREFFKKLLKEES
B17: GBRAP_52_6192 (protein)
chain: MREELRRRVREILALVRAGRLEEARRAARELVARLNDEELRLLTEVLAEVAAEAPLEDEDAVFRTAELLAEAMEEAGKDEVLAEDLLAAAARALYAKHLA
B18: GBRAP_43_5780 (protein)
chain: SKELVDGAFETALLAAEEPNIPEETKVKIIKLAFELAADEGYIDEEKLKEIIDAAGKSLSAEALKKIKEHLLKIAKEHPEFAEKFKEAAEKVEKYIKEKE
B19: GBRAP_125_3087 (protein)
chain: MEEEALEYAGIILAAFGFSEEEIEEFKRASEGSTVKTILQALVLAMDLPEAAEKSLELTDEEAYAVLKEVADYIKAHPDLTPEEVKAKLAEAIDKALAAS
B20: GBRAP_160_4735 (protein)
chain: MEKIKELVEEAKKLFLETVELTKDLSKEEQRALFEGAAGEALMDFIEDPNISDEMEDTAAEMLDELVAELVANYDASVEEKKKIVEEKMEELLKKLLEIA
B21: GBRAP_83_6976 (protein)
chain: KEEITVASPADRIEEAVEIAIDLHKNEGYKVTFEIIVRPEDLEKALEEIERLLKAIKDVEIEVVLEGATEEEAEALLKELKEIAAKLGANSKITVHLVEP
B22: GBRAP_11_2648 (protein)
chain: SKEVLLRAAELARELAETLARLIEEGVDNEELIAEAERLLEELARLAEEHLDEAIRSDVAVARELWAEFLADEANREEYARQLLAAVRVLEGNLLLAADE
B23: GBRAP_78_6706 (protein)
chain: GVEEKLEKAIEELGKAAKLLVKEGTELANDALGELVDAETYLWEAIEKGADLELLKKAKESLEKAIELAKKLDVPNKEEILKHLEKALKLVEEAIKEVEK
B24: GBRAP_11_2659 (protein)
chain: KKEIYKEAAKLAEKAAEALKKLIKEGVDNEELIKKIEELLKEIKKLAEEYLDEATKSDVKVAEELWKKFKEDKENQLEYAKELLAAVRVLEGNLLLEADE
B25: GBRAP_52_6282 (protein)
chain: SMEEVEKVAKEIVALVKAGDLDAALALAKKFAKEASLEEVKELAKLLIKELATLSPEQQELMFEVIEALAKELEKRFGEEEEADILEAEAAAAIYKQLQK
B26: GBRAP_11_2792 (protein)
chain: KKELLKELAEVLKEAAELLERLLASGLDDEELWEELRELLKKAEELAKKAGDEFTAELLRYAAEELERAREDPERAQEHVERALALVRVAEGQVLLAIEE
B27: GBRAP_14_3866 (protein)
chain: KETALKIVEEAIEEAREELKKAFPEKEELIEKVAEEIRKYAKEKLEKEEDIEEAMEEIKEYALKKVKEAFADLPPEDQAAALTIVDNEFLEADLEIEEKK
B28: GBRAP_160_4478 (protein)
chain: SEKVKEAAEELRKDVEEVLEESKDASPEQLALAVSVELGSNLMEFSSEGKINDEQEDIVIEAMDEIRELGEREKDASVEEVKERIREIVEEMVEKILEAA
B29: GBRAP_160_4308 (protein)
chain: MEELEKLKKEIKEITEEALKMIEGQTAEQQKTIVRVTLGEILLLAFENPAISDELEEEIGKIADEAEEYLDANPDLSEEEIKELLKKTTEKILELIDKSL

Each binder was assayed against GABARAP, O95166 (assay: median log2 fold change of GCK-ALFA target abundance (FLAG IP / Myc IP barcode read proportion) (log2 ratio); each designed protein is fused to an ALFA-tag nanobody in HEK293 cells to bring the named protein to FLAG-tagged glucokinase (GCK); Myc marks an untargeted standard; higher = target protein stabilised (more abundant)). Conditions: target protein: 3xFLAG-MCP-GCK-ALFA reporter; HEK293 landing pad (RPLP).
GABARAP, O95166, sequence (O95166 whole entry, the tested form may be a part): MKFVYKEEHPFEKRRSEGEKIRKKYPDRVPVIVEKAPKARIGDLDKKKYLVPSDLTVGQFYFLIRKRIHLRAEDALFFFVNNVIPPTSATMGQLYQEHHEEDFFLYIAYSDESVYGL
In short: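 The readout is target abundance, the per-binder median log2 ratio of FLAG to Myc barcode read proportions. It came from HEK293 landing-pad cells carrying a recombined ALFA-nanobody-fused binder library, induced with 2 μg mL^−1 doxycycline and transfected with a plasmid for a FLAG-tagged target and a Myc-tagged standard. After 48 h, lysates were immunoprecipitated with anti-FLAG and anti-Myc, and circular RNA barcodes were reverse transcribed, amplified and sequenced. Each barcode needed a proportion of at least 10^−7 in both replicates and each binder at least 3 barcodes per replicate, a pseudocount of 10^−6 was added, and the replicates were pooled.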

Binder | median log2 fold change
B1 | 0.252
B2 | 0.136
B3 | -0.0034
B4 | 0.241
B5 | 0.247
B6 | 0.0856
B7 | 0.0652
B8 | -0.0378
B9 | 0.141
B10 | -0.171
B11 | 0.198
B12 | 0.181
B13 | 0.209
B14 | 0.334
B15 | 0.317
B16 | 0.16
B17 | 0.013
B18 | -0.28
B19 | 0.142
B20 | -0.537
B21 | -1.64e-05
B22 | 0.122
B23 | 0.207
B24 | 0.282
B25 | 0.137
B26 | -0.348
B27 | 0.664
B28 | 0.00647
B29 | -0.463
